From the supplement of paper PMC11417369
The list shows a part of the results.

The sequences below were run on PfSIP2 AP2 domain 1 (GST-tagged) (assay: gcPBM binding intensity (ln(normalized median fluorescence intensity)); higher = stronger DNA binding).
How it was run: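 Plasmodium falciparum DNA-binding domains carrying a GST tag were expressed in E. coli and applied for 1 h, at about 25 μg on average, to an Agilent 4 × 180k array. The array held primer-extended double-stranded 36-bp intergenic genomic probes together with negative controls, and binding took place in 1× PBS with 1% milk, 0.2 mg/ml BSA, 0.5% salmon testes DNA and 0.03% Triton X-100. An Alexa488 anti-GST antibody detected bound protein, and the array was scanned at 488 nm. Binding intensity is taken as the highest Masliner-normalised natural-log median intensity across replicate spots of either probe orientation.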

| Sequence | gcPBM binding intensity (ln) |
| --- | --- |
| TACAAAATATTTTACACACACATATAAATACCTATA [CACACA_site7272] | 7.19 |
| TATATATATATATGAGTGCATATGTGTAATATAAAA | 9.27 |
| TATATAATTATTTGATGTACACTACAATGTATTTGT [XGTACX_site7991] | 7.16 |
| TTATGTTCTTAATGCACACTTATAAGTATCTTATAA [CACACA_site1394] | 7.3 |
| TTAACATTTTAAAAATGTACATTTATATACATAAAT [XGTACX_site922] | 6.96 |
| AGAAAAATTCTAAGAACATGCAAAAAAATAAAAAAA [TGCATGCA_site293] | 6.84 |
| TCTAATGTAATGCATACACACAACTATCCATCAAAA [CACACA_site534] | 6.93 |
| AAAAAATAAATAAATATACACACCATATATATATTT [CACACA_site2854] | 6.85 |
| TACACGCATAGACACACACACACACGCATATAAATA [CACACA_site6446] | 7.47 |
| TATACCTATAGACACACACACATAAATAGATATATA [CACACA_site6748] | 7.19 |
| TTTTTTTTTTTAAATAGTACACATATATATATATAT [XGTACX_site6983] | 9.28 |
| AAAAAAAAAAAAAAAAGTACAAAAAAAAAAAAAAAA [XGTACX_site4549] | 7.63 |
| TTTTATTTTTCTAGTAGTACTTCTTTTTATAATATA [XGTACX_site1181] | 6.83 |
| AGTTTACACCTTGTGAGTACATACATACATATATAT [XGTACX_site8793] | 7.26 |
| CACACCATATAATATATATATATGTATATATTTATA [CACACA_negctrl_site397] | 7.15 |
| TTTTTTTTTTTTTTGTCACACACCTTCATAAGAAAA [CACACA_site1166] | 7.09 |
| TAAAAGGAACAAAATTGTACTTAAAAGACAAAGTTA [XGTACX_site7661] | 6.75 |
| ACACAAAAATAAAAATGTACAAATTAAAAAAAATGA [XGTACX_site2083] | 6.96 |
| TTTGTTCTATGGAGTTTAAAATGTAATATATATTAA [GTGCAC_negctrl_site151] | 7 |
| ATCCTGAACAGAATATGTATAAACAGAAGGAAACAA [CACACA_negctrl_site1805] | 7.21 |
| ATATATATTAATAGTTGTACTATTATAATATTACAA [XGTACX_site1213] | 7 |
| ATATATATATATATATATATATATATATTTATATAT [GTGCAC_negctrl_site180] | 9.13 |
| CTTTGTAGTTGGTCCACACACATATATGGAAGAATA [CACACA_site1280] | 7.29 |
| TAATAATAGAGACACACACACATTTTTAATAATACA [CACACA_site6691] | 7 |
| TTTTAATTTATCGACACACGCATGAATAGAAATTAG [CACACA_site3361] | 6.87 |
